Source: PubChem BioAssay AID1794842 (National Center for Advancing Translational Sciences (NCATS), 2023)
In all, about 2,800 compounds went through this assay and fewer than 10 were called active. Calls follow the shape of the dose curve; as a rule, active = well fitted curve in the direction sought with a large enough effect; inconclusive = small, poorly fitted or top-dose-only effect, or another doubt; inactive = no such curve, though single readings can be large or run the other way. Some of the results follow.
Also: % of control where 0% means no effect.

These compounds were tested against Metallo-beta-lactamase type 2 (Klebsiella pneumoniae) (UniProt C7C422) (assay: qHTS to identify inhibitors of the New Delhi Metallo-beta-lactamase (NDM): Meropenem screen against the machine-based learning selections.). Conditions: Purified NDM-1, meropenem hydrolysis, absorbance 300 nm; at 38.4 µM (top of the series) unless noted.
Sequence of UniProt C7C422 (C7C422 whole entry, looked up): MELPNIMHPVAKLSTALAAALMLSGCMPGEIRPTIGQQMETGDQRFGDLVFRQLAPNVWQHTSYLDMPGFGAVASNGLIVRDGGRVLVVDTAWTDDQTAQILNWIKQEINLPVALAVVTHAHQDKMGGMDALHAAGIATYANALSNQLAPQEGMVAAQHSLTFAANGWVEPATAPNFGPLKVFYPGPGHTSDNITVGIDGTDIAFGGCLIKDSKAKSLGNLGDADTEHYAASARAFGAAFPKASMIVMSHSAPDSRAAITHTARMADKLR
In short: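 NDM-1 (2 nM final) in 50 mM HEPES pH 7.0, 1 uM Zn2SO4, 0.01% Tween20 was preincubated with compounds for >30 min. Nitrocefin (16.7 uM final) was read at 485 nm after 15 min, and meropenem (50 uM final) at 300 nm after 30 min.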
`O=C(NC1CCCCC1)N1C[C@@H]2C[C@H](C1)c1c(NS(=O)(=O)c3cccc(F)c3)ccc(=O)n1C2` was tested, and the activity change, negative = inhibition was inactive: -0.314%.
`CC(=O)N1CCC(Oc2ccccc2-c2nc(-c3ccccc3)no2)C1` (stereo unspecified) was tested, and the activity change, negative = inhibition was inactive: -2.41%.
For `O=C(N[C@H]1[C@H](O)[C@H](O)C[C@@H]1c1cccnc1)c1ccccn1`, the activity change, negative = inhibition was inactive: 0.957% [at 57.5 µM].
`O=C(O)c1cc(-c2cccc(CO)c2)cc(S(=O)(=O)N2CCOCC2)c1` was tested, and the activity change, negative = inhibition was inactive: 1.88%.
For `C[C@H]1[C@@H]2[C@@H](O)C([C@H](C)C(=O)NCc3cccs3)CC[C@@]2(C)CC[C@@H]1NC(=O)c1cncnc1` (stereo partly specified), the activity change, negative = inhibition was inactive: 0.658%.
`O=C(Cc1csc(-c2ccccc2)n1)N1CCCC(c2ccn[nH]2)C1` (stereo unspecified) was tested, and the activity change, negative = inhibition was inactive: 0.665%.
With `CC(C)N[C@@H]1CO[C@H](CNC(=O)c2ccncc2)[C@H]1O` the activity change, negative = inhibition was inactive: 1.12% [at 76.7 µM].
For `COc1ccc(C[C@H](NC(=O)C2=C[C@@H](NC(=O)c3ccc(OC)cc3)[C@@H](O)[C@H](O)C2)C(N)=O)cc1`, the activity change, negative = inhibition was inactive: 1.02%.
With `CN1C(=O)C(CC(=O)N2CCCNCC2)(Cc2ccccc2)c2ccccc21` (stereo unspecified) the activity change, negative = inhibition was inactive: 3.04%.
In the case of `COCc1ccc(C(=O)N2CC[C@@H](c3ccc4c(c3)OCO4)[C@H](O)C2)o1`, the activity change, negative = inhibition is reported as inactive: -4.01%.
In the case of `CCNC(=O)c1cccnc1OC1CCN(C(=O)CC)C1` (stereo unspecified), the activity change, negative = inhibition is reported as inactive: -0.695%.
In the case of `CCN(CC)Cc1nc(C2(O)CCN(C)CC2)cs1`, the activity change, negative = inhibition is reported as inactive: 0.7% [at 76.7 µM].
With `CC(C)C[C@@H]1N[C@H](C(=O)NCc2ccccn2)Cc2c[nH]c3cccc1c23` the activity change, negative = inhibition was inactive: -1.72% [at 57.5 µM].
With `C[C@@H]1CN(C(=O)Cn2ccc(=O)[nH]c2=O)C[C@@]1(O)C1CCC1` the activity change, negative = inhibition was inactive: -0.244%.
With `CC1=C[C@@H](CNC(=O)NC2CCCCC2)[C@H](C(C)C)C[C@H]1Cc1nc2ccc(C)cc2[nH]1` the activity change, negative = inhibition was inactive: -1.29% [at 57.5 µM].
With `CC(=O)Nc1cccc(-c2ccc3c(n2)c(=O)ncn3Cc2ccccc2)c1` the activity change, negative = inhibition was inactive: 8.17% [at 57.5 µM].
For `O=C(CC1CCCCC1)N1CCC2(CC1)NC(=O)N(c1ccc(F)cc1)N2`, the activity change, negative = inhibition was inactive: -0.975%.
For `CC(C)(C)CC(=O)NC[C@H]1OC[C@@H](NC2CCNCC2)[C@@H]1O`, the activity change, negative = inhibition was inactive: 52.3% [at 57.5 µM].
With `Cc1cc2c(cc1C(=O)N1CCC(O)(C(=O)O)CC1)OCCO2` the activity change, negative = inhibition was inactive: 6.93%.
`CSCCCN1CCC(Oc2ccc3ncccc3c2)(C(=O)O)CC1` was tested, and the activity change, negative = inhibition was inactive: 7.88%.
For `CS(=O)(=O)N[C@H]1C[C@H]2C(=O)Nc3ccc(-c4cccc(C(F)(F)F)c4)cc3C(=O)N2C1`, the activity change, negative = inhibition was inactive: 3.8%.
